Earlier results on 1 molecule are cited in publication PMC9427252, “Study on the Absorption of Arsenic Species in Realgar Based on the Form and Valence” (Evidence-based Complementary and Alternative Medicine : eCAM, 2022).

The conditions of the series: cited from earlier work.

As to `O[As](O)O` [AsIII, Arsenite], the pKa was 9.2.
